Reference: PubChem BioAssay AID1963576 (National Center for Advancing Translational Sciences (NCATS), 2024)
In all, about 46,000 compounds went through this assay and about 60 (0.1%) were called active. About 3% were inconclusive and are not listed. The call rests on the fitted dose curve; in most records, active means well fitted inhibition curve with a large enough effect; inconclusive means small, poorly fitted or top-dose-only effect; inactive means no such curve, though single readings can be large or run the other way. The list shows a part of the results.

Assay: Primary qHTS assay for Inhibitors of ovarian cancer metastasis using an organotypic tumor microenvironment (TME) model. Further: nearly all actives have a fitted effect of over 65% in size.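 On activity change, negative = inhibition: plate controls were DMSO wells for no effect and tomatine positive control wells for full effect.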
Settings: SKOV3ip1-GFP adhesion/invasion on 3D omental model, fluorescence; series mostly up to 45.8 µM; activity change, negative = inhibition: at the top concentration
Method in brief: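 Adhesion/invasion was scored as fixed GFP-labeled SKOV3ip1 cell counts (488/509 nm), normalized to DMSO and tomatine controls. Cancer cells in serum-free medium, with four compound doses (0.36-46 umol/L), sat 2 hr at RT then 16 hr at 37 C on a 48 hr fibroblast/mesothelial/ECM culture.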

Activity change, negative = inhibition, inactive:
CC(C)(C)C(=O)Oc1ccc(S(=O)(=O)Nc2ccccc2C(=O)NCC(=O)O)cc1 13.3%
COc1ccc(CCNC(=O)C2CCCN(c3nc4c(C)cc(C)cc4s3)C2)cc1OC (centres undefined) 4.64%
Cc1nc(-c2ccc(C)c(S(=O)(=O)N3CCC(C(=O)NCc4ccc(Cl)cc4)CC3)c2)no1 -5.55%
Cn1c(SCc2ccc(F)cc2)nc2ccc(C(=O)NCc3ccccc3)cc21 -1.38%
Cc1ccc(OCC(=O)Nc2ccc(S(=O)(=O)N(Cc3ccccc3)c3ccccc3)cc2)cc1 -14.8%
CCCCn1cc(S(=O)(=O)c2ccc(Cl)cc2)c(=O)c2cc(F)c(N3CCCCC3)cc21 -8.24%
Cc1cc(C)c2oc(C(=O)Nc3c(C(=O)Nc4ccccc4)oc4ccccc34)cc(=O)c2c1 -0.148%
CCc1ccc2occ(CC(=O)Nc3sc4c(c3C(=O)OC)CCC4)c2c1 -3.86%
CSC1=NC2(CCN(C(=O)NC3CCCCC3)CC2)N=C1c1ccc(C(C)(C)C)cc1 -3.49%
O=C(C1CCN(c2nc3ccccc3[nH]2)CC1)N1CCN(c2cccc(Cl)c2)CC1 -6.73%
Cc1cc(C(C)(C)C)c(O)c(C)c1CC1=NCCN1 -1.13%
CCOC(=O)c1c(-c2ccc(OC)c(OC)c2)csc1NC(=O)c1ccc(F)cc1 -7.21%
Cc1cccc(C(=O)Nc2ccccc2C(=O)OCc2cc(=O)n3nc(C4CC4)sc3n2)c1 9.35%
COc1cc2c(-c3ccccc3Cl)nc3c(c(C)nn3-c3ccccc3)c2cc1OC -14%
Cc1nc2ccc(S(=O)(=O)NC(C(=O)NCc3ccc(Cl)cc3)C(C)C)cc2s1 (centres undefined) 2.15%
Cc1ccc(Nc2c(-c3ccc(N4CCOCC4)cc3)nc3ncccn23)cc1C -6.71%
COc1cc(NC(=O)Cn2cnc3sc(C)c(S(=O)(=O)N4CCN(C)CC4)c3c2=O)cc(OC)c1OC -2.22%
CC(C)c1ccc(NC(=O)C2CCCN(S(=O)(=O)c3ccc4[nH]c(=O)ccc4c3)C2)cc1 (centres undefined) -23.1%
CCCN(CCC)CCCNC(=O)c1cn(CC)c2ccc(S(=O)(=O)N3CCc4ccccc4C3)cc2c1=O -9.09%
CCOC(=O)c1oc2ccc(S(=O)(=O)n3nc(-c4cc(OCC)c(OCC)c(OCC)c4)cc3N)cc2c1C 6.63%
CCN(c1ccc(C)cc1C)S(=O)(=O)c1nnc(NC(=O)c2ccccc2OC)s1 11.4%
CCOc1cccc(C(=O)Nc2ccc(NC(=O)c3ccc(Br)cc3)cc2)c1 4.81%
O=C(CSc1oc(-c2ccco2)nc1S(=O)(=O)c1ccccc1)c1ccc(Cl)cc1 5.51%
CCN1CCN(c2cc3c(cc2F)c(=O)c(S(=O)(=O)c2cc(C)cc(C)c2)cn3CC)CC1 -0.613%
COc1ccc(-n2cc(-c3ccccc3)c3c(NCCc4ccc(OC)c(OC)c4)ncnc32)cc1 -2.24%
CCOC(=O)c1ccc(NC(=O)c2c(NCc3cc(OC)c(OC)cc3OC)sc3c2CCCC3)cc1 -9.96%
CCCc1cnc2c(c1SCC(=O)Nc1cccc(C)c1C)c(=O)n(C)c(=O)n2C 5.84%
CCOc1ccc(-c2nonc2NC(=O)COc2ccccc2)cc1 4.88%
CCc1ccc(N2CCn3c2nc2c3c(=O)n(CCCc3ccccc3)c(=O)n2C)cc1 16.6%
Cc1cc(C)cc(OCCn2c(CCNC(=O)C3CCCCC3)nc3ccccc32)c1 -5.27%
O=C(Cc1ccccc1F)N1CCC(c2nc3c(nnn3Cc3cccc(Cl)c3)c(=O)[nH]2)CC1 -5.84%
Cc1ccc(-n2c(-c3ccco3)nc3c(cnn3-c3ccc(C)cc3)c2=O)cc1 8.83%
COc1ccc(CNC(=O)CN(c2ccc(OC)cc2)S(=O)(=O)c2c(C)[nH]c(=O)[nH]c2=O)cc1 2.08%
CC1=C(C(=O)OCC2CCCCC2)C(c2cccc(F)c2F)CC(=O)N1 (centres undefined) 27.9%
Cn1c(=O)oc2cc(S(=O)(=O)N3CCCC(C(=O)N4CCN(c5cccc(Cl)c5)CC4)C3)ccc21 (centres undefined) -2.46%
CCC(=O)N1CCc2cc(Br)cc(S(=O)(=O)N(CC)Cc3ccccc3)c21 6.46%
COc1ccc(OC)c(NC(=O)N(C)CCc2c(C)nn(C)c2C)c1 -2.77%
CCOc1ccc(NC(=O)CC2C(=O)N(c3ccc(C)cc3)C(=O)N2Cc2ccc(OC)cc2)cc1 (centres undefined) 4.39%
CCOc1ccc(NC(=O)c2c(NC(=O)c3ccccc3Br)sc3c2CCC(C)C3)cc1 (centres undefined) 0.907%
Cc1cc(-c2nc3ncccc3o2)ccc1NC(=O)c1ccc(Cl)cc1 -4.75%
COC(=O)CSc1ccc2nnc(CCNS(=O)(=O)c3ccccc3)n2n1 28.4%
CCOc1ccc(S(=O)(=O)NCC(c2ccc(N(C)C)cc2)N2CCc3ccccc32)cc1 (centres undefined) -7.05%
Cc1nc(-c2cccc(F)c2)sc1CCNC(=O)C(=O)Nc1ccc2c(c1)OCO2 2.63%
Cc1ccc(-c2nc3ncccc3o2)cc1NC(=O)c1ccc(-c2cccc(Cl)c2C)o1 1.46%
CCc1cccc(C)c1NC(=O)c1cn2c3c(ccc(Cl)c3c1=O)OC(C)C2 (centres undefined) 1.1%
Cc1cccc(N2CCN(c3ncnc4onc(C)c34)CC2C)c1 (centres undefined) -3.58%
N#Cc1nc(/C=C/c2ccc(F)cc2)oc1NC1CCCCC1 10.1%
Cc1ccccc1NC(=O)c1c(NC(=O)c2cccs2)sc2c1CCC(C)C2 (centres undefined) 2.19%

outcome, inactive:
COc1ccc(C2=C(C)C(=O)N(Cc3ccc(C(=O)NCc4ccc(C)cc4)cc3)S2(=O)=O)cc1
COc1cccc(N2C(=O)CSC23C(=O)N(CC(=O)NCc2ccc(C)cc2)c2ccccc23)c1 (centres undefined)
COc1ccccc1CNC(=O)c1c(O)nc2cc(C)ccn2c1=O
CCOC(=O)c1ccc2c(c1)N(CC(=O)Nc1ccc(CC)cc1)C(=O)c1ccccc1S2
CCc1ccc(Cn2nnc(C(=O)Nc3ccc(C)cc3)c2N)cc1
COc1cccc(CNCCSc2nnnn2C)c1OCc1ccc(Cl)cc1
CCOC(=O)c1ccc(NC(=O)CC2C(=O)N(c3ccccc3)C(=O)N2C2CCCCC2)cc1 (centres undefined)
O=C(CC1(O)C(=O)N(Cc2ccccc2)c2ccc(Br)cc21)c1ccccc1 (centres undefined)
COc1ccc(NC(=O)Cn2nnc(C(=O)Nc3ccc(C)c(F)c3)c2N)cc1Cl
O=C(NCCCCc1ccccc1)c1nn(-c2ccccc2)nc1CO
COc1ccc(C(=O)NCC(c2ccco2)S(=O)(=O)c2cccs2)cc1 (centres undefined)
